This note sets out measurements from PubChem BioAssay (NCI).

Where “and” joins values, the source holds several entries; their conditions need not be identical. Identical values can stand only once.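 Assay format: 96-well plates, 48-hour exposure. Here, GI50 denotes the concentration required for 50% inhibition of growth. TGI is the concentration that stops growth completely.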 Peptide text beside a SMILES is read from it. * marks the point of attachment. Boc = CC(C)(C)OC(=O)*; OSu = O=C1CCC(=O)N1O* Where only a bound is given, the exact number is not on record here.

The subject of this experiment is NCI-H322M lung. As to the kind of experiment: growth of human tumour cells (NCI), 48 h.

In the case of `Nc1ccccc1C(=O)CC1OC(=O)c2ccccc21` (stereo not drawn), the TGI is greater than 100 µM.
On to `FC(F)c1nc2ccccc2n1-c1nc(N2CCOCC2)nc(N2CCOCC2)n1`, for which the GI50 is 0.341 µM and 0.345 µM; the TGI was 3.4 µM and 3.56 µM.
`CCCCCC[N+](C)(C)Cc1ccc(C[N+](C)(C)CCCCCC)cc1` registered a TGI of 9.25 µM.
In turn, `C=C1C(=O)O[C@@H]2C[C@@H](C)[C@@H]3C=CC(=O)[C@@]3(C)[C@@H](OC(=O)CC(=O)O[C@H]3[C@@H]4C(=C)C(=O)O[C@@H]4C[C@@H](C)[C@@H]4C=CC(=O)[C@]43C)[C@H]12` registered a TGI of 0.74 µM.
Still for that read-out and setting: next, `CCOC(=O)c1ccc(Nc2c3c(nc4ccccc24)CCCC3)cc1`: greater than 100 µM.
In the case of `CO[C@H]1/C=C/O[C@@]2(C)Oc3c(C)c(O)c4c(c3C2=O)C(=O)C(/C=N/N(c2ccccc2)c2ccccc2)=C(NC(=O)/C(C)=C\C=C\[C@H](C)[C@H](O)[C@@H](C)[C@@H](O)[C@@H](C)[C@H](OC(C)=O)[C@@H]1C)C4=O`, the GI50 was 1.88 µM and the TGI worked out at 3.77 µM.
The corresponding values for `Cc1cc(S(=O)(=O)Nc2nc3cscc3c(=O)n2Cc2ccccc2)c(S)cc1Cl` are 18.2 µM and 75.9 µM.
The compound `COC(=O)/C=C\n1c(C)cc(=O)[nH]c1=O` registered a TGI greater than 100 µM.
Turning to `COC(=O)C1=C(C(=O)OC)C(C(=O)c2ccc(Br)cc2)N2N=C(c3ccc(Cl)cc3)C=CC12` (stereo not drawn), the TGI was greater than 100 µM.
The same measure, in the same setting: next, `CN(C)c1ccc(C(=C(c2ccc(N(C)C)cc2)c2ccc(N(C)C)cc2)c2ccc(N(C)C)cc2)cc1`: greater than 100 µM; `COc1cc2c(c(OC)c1OC)-c1ccc(SC)c(=O)cc1[C@@H](NCc1ccc(C#N)cc1)CC2`: greater than 100 µM; `CCc1cc(Cc2cc(Cl)c(NC(=O)C(=O)C3NC(=O)NC3=O)c(CC)c2)cc(Cl)c1NC(=O)C(=O)C1NC(=O)NC1=O` (stereo not drawn): greater than 100 µM.
For `O=C(CO[N+](=O)[O-])Nc1ccc(C(=O)/C=C/c2ccc(Cl)cc2)cc1`, the GI50 is 10.3 µM and the TGI was 22.6 µM.
Take `C[N-]c1nnnn1C.[Au+].c1ccc([PH+](c2ccccc2)c2ccccc2)cc1`: the GI50 is 8.3 µM and the TGI came out at 22.4 µM.
The corresponding values for `C=C1C(=O)O[C@H]2[C@H]1CC/C(COC(=O)CSCCSCC(=O)OC/C1=C/CC[C@@]3(C)O[C@H]3[C@H]3OC(=O)C(=C)[C@@H]3CC1)=C\CC[C@@]1(C)O[C@@H]21` are 3.71 µM and 13.4 µM.
The compound `CN(C)CC(C)(C)C(=O)/C=C/c1ccc(/C=C/C(=O)C(C)(C)CN(C)C)cc1` came in with a TGI of 2.79 µM.
As to `O=S(=O)(Nc1ccccc1Cl)c1ccc(-c2cnc(C3CC3)o2)cc1`, the GI50 is 2.78 µM and the TGI was greater than 100 µM.
`CN(C)CCNC(=O)c1cccc2c(NCCN(C)C)c3ccccc3nc12` registered a TGI of 29 µM.
In the case of `CC1CCC2(CC1)NN=c1s/c(=C\c3ccc(O)cc3)c(=O)n1N2` (stereo not drawn), the TGI was greater than 100 µM.
`O=S(=O)(CCBr)CCBr` registered a TGI of 31.7 µM.
Take `N[C@H](C(=O)O)[C@H]1ON=C(Cl)[C@@H]1O`: the GI50 was 1.86 µM and the TGI was greater than 550 µM.
The compound `C=C(C)C(=O)O[C@H]1C[C@@]23O[C@@H]2CCC(=C[C@H]2OC(=O)C(=C)[C@H]12)COC3O` (stereo partly drawn) yielded a TGI greater than 100 µM.
`COc1cc(/C=C2\C(=O)Nc3cc(C)c(O)cc32)cc(OC)c1OC`: the GI50 is 9.62 µM and the TGI came to 29.3 µM.
On to `Oc1[nH]c2ccccc2c1N=Nc1ccccn1`, for which the TGI is greater than 100 µM.
Still for that read-out and setting: with `CCCN1C(=O)CC(C)N(Cc2ccccc2Cl)C1=S` (stereo not drawn) the figure was greater than 100 µM.
With `CCOC(=O)c1sc(-c2ccc(OS(=O)(=O)c3ccc(Br)s3)c(C=O)c2)nc1C`, the GI50 was 27.3 µM and the TGI is greater than 100 µM.
In the same order, the values of `O=C1c2ccccc2-c2c1c1c(=O)[nH]c3ccccc3c1n2Cc1ccccc1` are 31.8 µM and greater than 100 µM.
The compound `O=[N+]([O-])C1CC/C(=N/O)c2nonc21` (stereo not drawn) registered a TGI greater than 10 µM.
Consider `CNC(=O)c1ccc(N2CCN(Cc3ccc4nc(C)c(=O)[nH]c4c3F)CC2)c(F)n1`, for which the GI50 was greater than 100 µM and the TGI was greater than 100 µM.
`COC(=O)N(C(=O)OC)C(C(=O)O)C(C)C` (stereo not drawn) displayed a TGI greater than 100 µM.
Same read-out and setting: next, `Cc1c(Cl)c2ccccc2n1S(=O)(=O)c1ccccc1`: greater than 100 µM.
For the compound `COc1ccc(C(=O)/C=C/c2ccc(C)cc2)cc1OC`, the GI50 was 16.1 µM and the TGI was 39.4 µM.
Turning to `O=C(/C=C/c1ccc(O)cc1)c1ccc2c(c1)OCO2`, the TGI is 99.4 µM.
The same measure, in the same setting: with `O=C(O)c1cc2ccccc2c(N=Nc2ccc(S(=O)(=O)Nc3nccs3)cc2)c1O` the figure was greater than 100 µM; with `COc1cc2c(cc1OC)C(C(CO)CO)N(CC(O)CCl)CC2` (stereo not drawn), greater than 100 µM; with `CC(C)=CCc1c(OC(=O)c2c(C)cc(O)cc2O)cc(CO)c(CO)c1O`, 49.2 µM.
Take `Cc1ccc(S(=O)(=O)NC(=O)C2C(=O)CC3(CCCCC3)CC2=O)cc1`: the TGI stood at 85 µM.
The compound `COC(=O)C1C/C(=C/N(C)C)C(=S)N1` (stereo not drawn) yielded a TGI greater than 100 µM.
Consider `COc1cc(-c2cc3ncccc3c3nc(N)c4cccnc4c23)cc(OC)c1OC`, for which the GI50 is 0.472 µM and the TGI is 60.1 µM.
The corresponding values for `COc1ccc(S(=O)(=O)N2CC(C)(C)CN(S(=O)(=O)c3ccc(OC)cc3)C2C(=O)NO)cc1` are greater than 6.4 µM and greater than 20 µM.
`O=c1nc(/C=C/c2ccccc2Cl)cc2n1CCN2CCO` yielded a TGI greater than 100 µM.
Take `CCC(CON(C)c1ccccc1)(SC)SC`: the TGI is greater than 100 µM.
Same read-out and setting: with `CC(NC(=O)C(NC(=O)OC(C)(C)C)C(C)C)C(=O)NCC(=O)ON1C(=O)CCC1=O` (stereo not drawn) (Boc-Val-Ala-Gly-OSu; configuration not given here) the figure was greater than 100 µM.
Regarding `CC(=O)[O][Ga]([Cl])[O]C(C)=O`, the GI50 was greater than 100 µM and the TGI is greater than 100 µM.
`COC(=O)NCCc1[nH]nc2c1C(=O)C=C(N1CCOCC1)C2=O` showed a TGI greater than 100 µM.
As to `CCOC(=O)C1N(S(=O)(=O)c2ccc(C)cc2)CCC12c1ccccc1N(C(C)=O)C2c1ccc(OC)c(OC)c1` (stereo not drawn), the TGI was greater than 100 µM.
With `CC(C)/C(Cl)=N\OC(=O)Nc1ccccc1F`, the TGI is 35.4 µM.
For `NC(N)=N/N=C/c1nc2n(c1[N+](=O)[O-])CCS2`, the TGI was greater than 100 µM.
As for `COc1ccc(-c2cc(=O)c3ccc(C)nc3[nH]2)cc1`, the TGI is greater than 100 µM.
Consider `COc1cccc(-c2cc(=O)c3cc(OC)ccc3[nH]2)c1`, for which the GI50 was 0.153 µM and the TGI was greater than 100 µM.
On to `COc1ccc2nc3ccc(OC)cc3c(SCCO)c2c1`, for which the TGI is greater than 100 µM.
For the compound `COc1cc(NC(N)=NCCC(C)(C)Oc2ccc(C(F)(F)F)cc2)ncc1C#N`, the GI50 was 1.46 µM and the TGI came out at 2.78 µM.
In the same order, the values of `CCOC(=O)N1CCN(c2nc(Nc3cc(C)[nH]n3)c3ccccc3n2)CC1` are 12.9 µM and 78.3 µM.
For `CCCCCCCCOC1C(O)C(O)C(O)C(O)C12CO2` (stereo not drawn), the TGI was greater than 100 µM.
The compound `CC[C@H](O)[C@H](C)C=C1SCCCS1` returned a TGI greater than 100 µM.
On the same count and under the same terms, next, `CCOC(=O)C1=CNC(C(=O)OCC)C1c1cccn1-c1ccc(Cl)cc1[N+](=O)[O-]` (stereo not drawn): greater than 100 µM; `O=CN1CCN(C(=O)c2ccc(Cl)cc2Cl)C1=S`: greater than 100 µM.
For the compound `CCC[CH2][Sn]([CH2]CCC)([CH2]CCC)[O]c1ccc(Cl)cc1Cl`, the GI50 was 0.0992 µM and the TGI came out at 0.259 µM.
In turn, `C[C@]12CC[C@H]3[C@@H](CC=C4C[C@@H](N5CCCC5)CC[C@@]43C)[C@@H]1C[C@H](N1CCOCC1)[C@@H]2O` yielded a TGI greater than 100 µM.
In the case of `C=C(c1ccc2nc(NC(=O)OC)[nH]c2c1)c1cccs1`, the TGI was greater than 100 µM.
Compound `CCOC(=O)C1(C/C=C(/C)Cl)CCCC1=O` (stereo not drawn) came in with a TGI greater than 100 µM.
On the same count and under the same terms, with `Nn1c(COc2cccc(OCc3n[nH]c(=S)n3N)c2)n[nH]c1=S` the figure was greater than 100 µM; with `C1CCC2(CC1)O[C@@H]1[C@@H](O2)[C@@H](O[C@H]2O[C@@H]3COC4(CCCCC4)O[C@H]3[C@@H]3OC4(CCCCC4)O[C@@H]23)O[C@@H]2COC3(CCCCC3)O[C@@H]12`, greater than 100 µM; with `COC(=O)CCC(=O)NC1=C(Nc2ccc(OC)cc2)C(=O)c2ccccc2C1=O`, 30.3 µM.
The compound `Oc1ccc(-c2nc(-c3cccnc3)c(-c3ccc(Cl)cc3)[nH]2)cc1O` showed a TGI of 59.8 µM.
The same measure, in the same setting: with `C=C(COC(C)=O)CC(OC(C)=O)c1ccccc1` (stereo not drawn) the figure was greater than 100 µM; with `Cc1[nH]c2c(c1C)S(=O)(=O)c1cc3ccccc3nc1N2`, greater than 100 µM.
With `Cn1cc(C2=C(c3cn(CCCCN)c4ccccc34)C(=O)NC2=O)c2ccccc21`, the GI50 is greater than 25 µM and the TGI was greater than 25 µM.
For `CC(C)CC(NC(=O)c1cccc(O)c1O)C(=O)NCc1cc(CNC(=O)C(CC(C)C)NC(=O)c2cccc(O)c2O)cc(CNC(=O)C(CC(C)C)NC(=O)c2cccc(O)c2O)c1` (stereo not drawn), the TGI amounted to 50.9 µM.
For `Nc1nc(SCc2ccc([N+](=O)[O-])cc2)nc2c1ncn2C1OC(COP(=O)(O)O)C(O)C1O` (stereo not drawn), the TGI is greater than 100 µM.
For `OCc1ccc(-c2ccc(-c3ccc(CO)o3)[se]2)o1`, the GI50 is greater than 66.9 µM and the TGI is greater than 100 µM.
As for `COc1ccc(OC)c2c1CC(C(=O)O)(C(=O)O)CC2=O`, the TGI was greater than 100 µM.
On to `OC(c1cc2ccccc2o1)c1cc2ccccc2s1` (stereo not drawn), for which the TGI was greater than 10 µM.
Regarding `Cc1nn(-c2nc3ccccc3[nH]2)c(N)c1-c1ccc(Cl)cc1`, the GI50 is 4.23 µM and the TGI is greater than 100 µM.
Compound `COC(=O)/C=C1/CCC(C(=O)OC)N1` (stereo not drawn) registered a TGI greater than 100 µM.
With `CC(C)(C)C(=O)c1c(C(F)(F)F)n([O-])c2ccccc2[n+]1=O`, the GI50 is 1.94 µM and the TGI turned out to be 5.13 µM.
As to `COc1ccc(-c2cn[nH]c2-c2cc(OC)c3c(c2)OCO3)cc1`, the GI50 was 0.704 µM and the TGI was 43 µM.
The corresponding values for `Nc1ccc(C2=NN(c3ccccc3)C(c3ccc(Cl)cc3)C2)cc1` (stereo not drawn) are 7.96 µM and 22.4 µM.
`Cc1cnc2sn(-c3ccc(Oc4ccccc4)cc3)c(=O)c2c1` registered a TGI greater than 100 µM.
Take `C#CCOc1cccc(-c2ncnc3cc(NC(=O)CCl)ccc23)c1`: the GI50 is 4.05 µM and the TGI was determined as 8.58 µM.
As for `CC(=O)OCC1OC(n2c(-c3ccc(Cl)cc3)ccc(C#N)c2=S)C(OC(C)=O)C(OC(C)=O)C1OC(C)=O` (stereo not drawn), the TGI is greater than 100 µM.
